Hit rate of the full screen: of about 390,000 compounds, about 360 (0.092%) were called active. The shares of active, inactive and inconclusive entries below differ from those in the screen. The call rests on the fitted dose curve; in most records, active means well fitted inhibition curve with a large enough effect; inconclusive means small, poorly fitted or top-dose-only effect; inactive means no such curve, though single readings can be large or run the other way. Potencies beside an inconclusive call are fits to weak or partial responses and may not hold up.
Each compound was assayed against Isocitrate dehydrogenase [NADP] cytoplasmic (Homo sapiens) (UniProt O75874) (assay: qHTS for Inhibitors of mutant isocitrate dehydrogenase 1 (IDH1): qHTS). Conditions: IDH1-R132H enzyme, NADPH consumption, diaphorase/resazurin fluorescence; series mostly up to 76.6 µM; activity change, negative = inhibition: at the top concentration.
Outline: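 IDH1-R132H (0.5 ug/mL) preincubated 30 min with compound, then NADPH (0.016 mM) and alpha-KG (2 mM) added; 80 min at RT, pH 7.5. Remaining NADPH coupled via diaphorase/resazurin to fluorescence (540/590 nm); concentration-response curves normalized to no-enzyme control.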
For `CC(=O)N1CCCc2cc(S(=O)(=O)N(C)CC(=O)Nc3ccc(Cl)cc3C)ccc21`, the “activity change, negative = inhibition” value was inactive: 1.76%. With `Cc1ccc2nc(-c3ccc(Cl)c(NC(=O)c4ccc(Br)o4)c3)oc2c1` the Potency was inconclusive: 50.1 µM [inhibitor, single point]. In the case of `COc1ccc(-c2nc3scc(CCNC(=O)Cc4ccc(F)cc4)n3n2)cc1`, the “activity change, negative = inhibition” value is reported as inactive: -2.31%. In the case of `COc1ccc(CNC(=O)c2c(Nc3ccccc3C)sc(C(=O)c3ccccc3)c2N)cc1`, the Potency is reported as inconclusive: 44.7 µM [inhibitor, single point]. For `COc1ccc(C(C(=O)Nc2ccc(C(C)C)cc2)N(Cc2ccco2)C(=O)CC2NC(=O)NC2=O)cc1` (stereo not drawn), the Potency was inconclusive: 46.5 µM [inhibitor, partial curve]. `Cc1cc(S(=O)(=O)Nc2ccc(O)c(Sc3nc4ccccc4s3)c2)ccc1Cl` was tested, and the Potency was inconclusive: 50.1 µM [inhibitor, single point]. In the case of `Cc1cc(C)nc(/N=c2/ssnc2Cl)c1`, the Potency is reported as inconclusive: 23.3 µM [inhibitor, partial curve]. With `COc1cccc(-c2coc3cc4oc(=O)c(CCC(=O)O)c(C)c4cc23)c1` the Potency was inconclusive: 50.1 µM [inhibitor, single point]. With `Cc1nn(Cc2ccc(Cl)c(Cl)c2)c(C)c1NC(=O)c1sc2ccccc2c1Cl` the “activity change, negative = inhibition” value was inactive: 2.59%. For `O=C(O)c1cccc(N2C(=O)/C(=C/c3ccc([N+](=O)[O-])cc3)C=C2c2ccccc2)c1`, the Potency was inconclusive: 41.4 µM [inhibitor, partial curve]. For `COc1cc2cnc(-c3ccccc3)c(-c3ccc([N+](=O)[O-])cc3)c2cc1OC`, the Potency was inconclusive: 50.1 µM [inhibitor, single point]. With `Cc1cc(NS(=O)(=O)c2ccc3oc(=O)c4ncn(C)c4c3c2)ccc1Br` the Potency was inconclusive: 44.7 µM [inhibitor, partial curve, poor fit]. `CCOc1cc(C2NC(=O)c3c(sc4c3CCN(C)C4)N2)ccc1OC(=O)c1ccc(Br)cc1` (stereo not drawn) was tested, and the Potency was inconclusive: 63.1 µM [inhibitor, single point]. With `O=C(CSc1nccn1Cc1ccc(F)cc1)Nc1nc2ccccc2s1` the Potency was inconclusive: 63.1 µM [inhibitor, single point]. With `COc1cccc(C(=O)Nc2ccccc2C(=O)OCc2cc(=O)n3c4c(sc3n2)CCCC4)c1` the “activity change, negative = inhibition” value was inactive: -21.7%. `Cc1ccc(C2C=C(c3ccccc3)Nc3nc(NS(=O)(=O)c4ccccc4)nn32)cc1` (stereo not drawn) was tested, and the Potency was inconclusive: 50.1 µM [inhibitor, single point]. For `CN(Cc1ccccc1)C(=O)c1ccc(CSc2nc3cccnc3n2Cc2ccccc2F)cc1`, the Potency was inconclusive: 50.1 µM [inhibitor, single point]. With `CCOc1ccc(CCNC(=O)c2cc(=O)[nH]c3ccc(S(=O)(=O)N4CCCCC4C)cc23)cc1OCC` (stereo not drawn) the “activity change, negative = inhibition” value was inactive: -6.21%. With `COCCn1c(C)cc(O)c(C(c2ccccc2OC)N2CCN(c3ccccc3)CC2)c1=O` (stereo not drawn) the “activity change, negative = inhibition” value was inactive: -1.94%. With `COCCCNC(=O)c1cccn2c(=O)c3cc4ccccc4cc3nc12` the Potency was inconclusive: 58.5 µM [inhibitor, partial curve, poor fit]. `Cc1sc(NC(=O)c2ccccc2)c(C(c2ccc(Cl)cc2)N2CCN(CCO)CC2)c1C` (stereo not drawn) was tested, and the Potency was inconclusive: 58.5 µM [inhibitor, single point]. In the case of `CCc1ccc(NC(=O)CSc2nc3c(c(=O)[nH]2)CN(Cc2ccc4c(c2)OCO4)CC3)cc1`, the Potency is reported as inconclusive: 50.1 µM [inhibitor, single point]. `COc1c(CC=C(C)C)cc(C2CC(=O)c3c(O)cc(O)cc3O2)c(CC=C(C)C)c1O` (stereo not drawn) was tested, and the Potency was inconclusive: 50.1 µM [inhibitor, single point]. `Cc1cccc(C(=O)NCc2nnc3c4ccccc4c(-c4ccccc4)nn23)c1` was tested, and the Potency was inconclusive: 58.5 µM [inhibitor, partial curve, poor fit]. With `CCN1C(=O)/C(=C/C=C2\N(CC)c3cc(S(=O)(=O)N(C)C)ccc3N2c2ccccc2)SC1=S` the Potency was active: 52.1 µM. `COc1ccccc1OCCCOc1cccc(/C=C2\SC(=O)NC2=O)c1` was tested, and the Potency was inconclusive: 52.1 µM [inhibitor, single point]. `Nc1nc(N)c(C=Nc2ccc(Br)cc2)c(Nc2ccc(Br)cc2)n1` was tested, and the Potency was inconclusive: 44.7 µM [inhibitor, partial curve, poor fit]. For `COc1cc(SC#N)ccc1N=Cc1c(C)[nH]n(-c2ccc(C)cc2C)c1=O`, the Potency was active: 41.4 µM. For `CCOc1cc2c3c(c1)C1(C(=O)N3C(C)(C)C=C2C)C(C#N)=C(N)Oc2cc(O)ccc21` (stereo not drawn), the Potency was inconclusive: 46.5 µM [inhibitor, partial curve]. For `CCC1(C)Cc2c(sc3nc(SCC(=O)c4ccccc4)[nH]c(=O)c23)CO1` (stereo not drawn), the Potency was inconclusive: 58.5 µM [inhibitor, single point]. In the case of `O=C1CSC2(C(=O)N(Cc3ccccc3)c3ccccc32)N1c1ccc(Cl)cc1` (stereo not drawn), the Potency is reported as inconclusive: 12.6 µM [inhibitor, full curve]. For `CC(=O)N(Cc1cc(=O)[nH]c2ccccc12)c1cccc(C)c1`, the Potency was inconclusive: 52.1 µM [inhibitor, single point]. For `Cc1cc(NC(=O)CCC(=O)N(c2ccccc2)C(C(=O)NC2CCCC2)c2ccccc2F)no1` (stereo not drawn), the Potency was inconclusive: 18.5 µM [inhibitor, full curve]. With `O=C1CCSC2(C(=O)N(Cc3ccc(F)cc3)c3ccccc32)N1c1ccccc1` (stereo not drawn) the Potency was inconclusive: 39.8 µM [inhibitor, partial curve]. For `CC(C)/C=C1\CC/C(=C\c2cccnc2)C1=O`, the Potency was inconclusive: 52.1 µM [inhibitor, single point]. For `CCCCN1C(=O)C(C#N)CC2=C1CC(C)(C)CC2=O` (stereo not drawn), the Potency was inconclusive: 50.1 µM [inhibitor, single point]. With `CCOc1cc(/C=N/Nc2ccc(C(=O)O)cc2)ccc1OC(=O)c1ccccc1C` the Potency was inconclusive: 58.5 µM [inhibitor, partial curve, poor fit]. With `Cc1ccc(Nc2c3c(nc4nc(-c5cccs5)nn24)CCCC3)cc1F` the Potency was inconclusive: 50.1 µM [inhibitor, single point]. `Cc1oc(-c2ccc(Cl)cc2)nc1CS(=O)CC(=O)NCCc1ccccc1` (stereo not drawn) was tested, and the “activity change, negative = inhibition” value was inactive: 6.14%. With `N=c1c(S(=O)(=O)c2ccccc2)cc2c(=O)n3ccccc3nc2n1Cc1cccnc1` the Potency was inconclusive: 58.5 µM [inhibitor, single point]. With `Cc1ccc(Nc2nc(NCCO)nc3c2cnn3C)cc1Cl` the Potency was inconclusive: 14.7 µM [inhibitor, full curve]. For `COC(=O)c1cc2sccc2n1CC(=O)Nc1ccc(C)cc1C`, the Potency was inconclusive: 50.1 µM [inhibitor, partial curve, poor fit]. `CC(O)CNc1nc2c(c(=O)n(Cc3ccccc3)c(=O)n2C)n1C` (stereo not drawn) was tested, and the “activity change, negative = inhibition” value was inactive: 5.59%. With `Cc1ccccc1NC(=O)CCn1nc(-c2ccc(Cl)cc2)c2ccccc2c1=O` the Potency was inconclusive: 50.1 µM [inhibitor, single point]. In the case of `O=C1CC(SC(=S)C2CCCC2=O)C(=O)N1` (stereo not drawn), the “activity change, negative = inhibition” value is reported as inactive: 7.73%. With `C[C@@H]1CNC(=O)c2c(C(=O)Nc3cccc(Cl)c3)ncn21` the “activity change, negative = inhibition” value was inactive: 17.4%. In the case of `Cc1[nH]n(-c2ccccc2)c(=O)c1C=Nc1ccc(S(=O)(=O)Nc2nccs2)cc1`, the Potency is reported as inconclusive: 58.5 µM [inhibitor, single point]. With `C=CS(=O)(=O)c1c2cc(OC)ccc2nc2ccc(OC)cc12` the Potency was inconclusive: 16.5 µM [inhibitor, full curve]. In the case of `O=C(O)c1ccc(Cl)c(S(=O)(=O)N2CCC(Cc3ccccc3)CC2)c1`, the Potency is reported as inconclusive: 58.5 µM [inhibitor, single point]. For `COc1cc2c(cc1OC)C(c1cc(Br)ccc1F)N(C(=O)CCl)CC2` (stereo not drawn), the Potency was inconclusive: 44.7 µM [inhibitor, partial curve, poor fit]. With `O=C1CCSC2(C(=O)N(Cc3ccccc3)c3ccccc32)N1c1ccccc1` (stereo not drawn) the Potency was inconclusive: 44.7 µM [inhibitor, partial curve, poor fit]. With `Cc1ccc2nc(/C(C#N)=C/c3ccc(-c4ccc(C(=O)OC(C)C)cc4)o3)[nH]c2c1` the “activity change, negative = inhibition” value was inactive: -13%. With `CCOC(=O)c1c(C)oc2nc(C)nc(NCCc3ccc(OCC)cc3)c12` the “activity change, negative = inhibition” value was inactive: 3.48%. In the case of `Cc1nn(-c2ccccc2)c(-n2cccc2)c1C(=O)NCCCN1CCN(c2ccccc2F)CC1`, the “activity change, negative = inhibition” value is reported as inactive: 11.3%. In the case of `CN(C)CCNCCCNc1c2ccccc2nc2cccc([N+](=O)[O-])c12`, the “activity change, negative = inhibition” value is reported as inactive: 4.94%. With `Cc1cccc(C)c1-n1c(SCC(=O)N2CC(=O)Nc3ccccc32)nc2ccccc2c1=O` the Potency was inconclusive: 41.4 µM [inhibitor, partial curve]. For `Cc1cc(C)cc(N2C(=O)CCSC23C(=O)N(Cc2ccccc2)c2ccccc23)c1` (stereo not drawn), the Potency was inconclusive: 44.7 µM [inhibitor, partial curve, poor fit]. For `O=S(=O)(NC1=NCCCCC1)c1ccc2sc(NS(=O)(=O)c3ccc4ccccc4c3)nc2c1`, the Potency was inconclusive: 58.5 µM [inhibitor, single point]. For `O=C(Nc1sc2c(c1C(=O)NCc1ccccc1)CCCC2)c1cc(=O)c2cc(Cl)ccc2o1`, the “activity change, negative = inhibition” value was inactive: 8.92%. For `O=C(Nc1nc2nc(-c3ccccc3)cc(=O)n2[nH]1)c1ccc(F)cc1`, the Potency was inconclusive: 70.8 µM [inhibitor, single point]. `CCc1nnc(NS(=O)(=O)c2ccc(NC(=S)NC(=O)c3ccc(Br)cc3)cc2)s1` was tested, and the Potency was inconclusive: 58.5 µM [inhibitor, partial curve, poor fit]. With `O=C(CCN1CCc2ccccc2CC1)c1ccc2c(c1)OCCO2` the “activity change, negative = inhibition” value was inactive: 3.63%. With `Cc1cc(C2(c3ccc(O)c(C)c3)C(=O)N(C)c3ccc(Br)cc32)ccc1O` the Potency was inconclusive: 52.1 µM [inhibitor, single point].
Further: nearly all actives have a fitted effect of over 65% in size.
On the % scale 0 is the no-effect control and ±100 the full control effect; potency means the concentration at half of the fitted maximal effect; tags describe the fitted curve by direction and shape.
